Hit rate of the full screen: of about 52,000 compounds, about 1,700 (3.3%) were called active. No stated cut-off is given here; in the data, active means survival mostly below about 52% (no sharp cut-off); inactive means mostly above about 56%. Some of the results follow.

The experiment relates to Wild type. The experiment can be described thus: growth inhibition of S. aureus wild type versus tarO mutant, primary screen, teichoic acid synthesis inhibitors, RN4220, OD600 (AID 463173). Conditions: S. aureus RN4220 wild type/DeltatarO growth, OD600, 18 h, active compounds read low, screened at 18.75 µg/mL (by protocol).
Regarding `Cc1nc2ccn(Cc3ccco3)c(=O)c2cc1C(=O)NCc1ccccc1F`, the survival was inactive: 75%.
To `O=C(NCc1ccccc1Cl)C1CCN(S(=O)(=O)Cc2ccccc2)CC1` belongs inactive: 89%.
To `CCOC(=O)c1ccc(NC(=O)c2cnn(-c3ccc(C)cc3C)c2C2CCN(C(=O)OC(C)(C)C)CC2)cc1` belongs inactive: 74%; to `COc1ccc(Cl)cc1NC(=O)CSC1=Nc2ccccc2C2=NC(CCC(=O)NCc3ccc(F)cc3)C(=O)N12` (stereo not drawn), inactive: 88%; to `O=C(Nc1ccc(F)c(Cl)c1)C1CCN(C(=O)c2ccc(F)cc2)CC1`, inactive: 70%.
With `N#Cc1ccccc1Cn1c(=O)n(CCCC(=O)NCc2ccccc2Cl)c(=O)c2ccccc21` the figure was inactive: 152%.
On to `CCSc1ncc(Cl)c(C(=O)Nc2nnc(CC)s2)n1`, for which the survival is inactive: 88%.
To `Cc1cccc(NC(=O)CSc2ncc(-c3ccccc3)[nH]2)c1C` belongs inactive: 62%.
To `O=C(c1ccccc1F)N1c2ncnn2C2(CCCCC2)[C@@H]2CCCC[C@@H]21` belongs inactive: 117%; to `Cc1cccc(Nc2nc(N)nc(N)c2S(=O)(=O)c2ccccc2)c1`, inactive: 70%.
In the case of `CN1CCc2c(sc(N)c2C(=O)O)C1`, the survival is inactive: 93%.
With `CCC(C(=O)NCCc1ccccc1)n1nc(C)c2sc3ccccc3c2c1=O` (stereo not drawn) the figure was inactive: 80%; with `COc1ccc(C2=C(C)C(N3CCC(C(=O)Nc4ccccc4F)CC3)=NS2(=O)=O)cc1`, inactive: 57%; with `Cc1c(C)n(Cc2ccc(F)cc2)c2ccc(C(=O)N3CCN(c4ccc(F)cc4)CC3)cc12`, inactive: 75%.
To `O=C(COc1ccc(F)cc1)NCCCn1ccnc1` belongs inactive: 97%.
Turning to `CCOc1ccc2oc(=O)cc(CN3CCN(C(=O)c4ccc(OC)c(OC)c4)CC3)c2c1`, the survival is inactive: 88%.
With `O=C(O)CC1OC(=O)c2ccccc21` (stereo not drawn) the figure was inactive: 94%; with `O=C(C1CCN(c2ncnc3c2nc2n3CCCCC2)CC1)N1CCN(c2ccccc2F)CC1`, inactive: 82%.
With `Cc1ccc2oc(-c3ccc(Cl)c(NC(=O)Cc4ccccc4)c3)nc2c1` the figure was inactive: 96%; with `COc1ccccc1CCNC(=O)Cc1ccc(NC(=O)N2CCSc3ncccc32)cc1`, inactive: 87%; with `CCCNS(=O)(=O)c1cc(-c2nn3c(C)nnc3c3ccccc23)ccc1C`, inactive: 78%.
To `COc1ccc(CNC(=O)c2cc3c(=O)n(Cc4cccnc4)ccc3nc2C)cc1` belongs inactive: 32%; to `COc1ccccc1CNC(=O)c1cc2c(=O)oc3ccc(C)cc3c2s1`, inactive: 62%; to `CCc1ccc(-c2nn(CC(=O)NC3CCCCC3)c3c2cnc2ccc(F)cc23)cc1`, inactive: 68%.
Regarding `CC(=O)N1CCCc2cc(S(=O)(=O)N3CCCC(C(=O)NCc4ccccc4Cl)C3)ccc21` (stereo not drawn), the survival was inactive: 80%.
`Cc1ccc(-n2c(=O)c3c4c(sc3n(Cc3cc(=O)n5cc(Cl)ccc5n3)c2=O)CCC4)cc1C`: the survival was inactive: 142%.
To `CCOC(=O)c1ccccc1NC(=O)CN(c1cccc(C)c1C)S(=O)(=O)c1ccccc1` belongs inactive: 118%.
To `CN(C)S(=O)(=O)c1ccc(S(=O)(=O)N2CCCC(C(=O)NC(C)(C)C)C2)cc1` (stereo not drawn) belongs inactive: 99%.
Consider `CC(C)(C)c1ccc(OCc2nc3ccccc3n2CCOc2ccccc2)cc1`, for which the survival is active: 7%.
For the molecule `Cc1cccc(C)c1OCc1nc2c3cnn(-c4ccccc4F)c3ncn2n1`, the survival was inactive: 119%.
To `CCOc1ccccc1NC(=O)C1CCN(S(=O)(=O)c2ccc3[nH]c(=O)oc3c2)CC1` belongs inactive: 67%; to `CC1CCc2c(cc(-c3ccccc3)n2-c2ccc(C(=O)NC(C)C)cc2)C1` (stereo not drawn), inactive: 106%.
With `CCc1cccc(OCC(=O)Nc2ccc(S(=O)(=O)Nc3ncccn3)cc2)c1` the figure was inactive: 70%; with `Cc1cc(C)cc(NC(=O)Cc2csc(C)n2)c1`, inactive: 80%.
To `CC(=O)c1ccc(S(=O)(=O)N2CCn3cccc3C2c2ccccc2F)cc1` (stereo not drawn) belongs inactive: 85%; to `COc1cccc(NC(=O)CSc2nc3c([nH]c4ccccc43)c(=O)n2-c2cc(C)cc(C)c2)c1`, inactive: 85%; to `CC1=NN(C(=S)c2ccccc2)C(C)(O)C1` (stereo not drawn), inactive: 109%.
On to `COc1ccc(-c2nc3ccccc3n3c(-c4cccc(C)c4)c4c(=O)n(C)c(=O)n(C)c4c23)cc1OC`, for which the survival is inactive: 77%.
Consider `CCC(C)NC(=O)c1c(C)oc2ncn(CC(C)C)c(=O)c12` (stereo not drawn), for which the survival is inactive: 63%.
Regarding `O=C(CCS(=O)(=O)c1cc(Br)cc2c1N(C(=O)C1CC1)CC2)N1CCN(c2cccc(Cl)c2)CC1`, the survival was inactive: 82%.
On to `CCN(C1CCCCC1)S(=O)(=O)c1ccc(S(=O)(=O)NC2CC2)cc1`, for which the survival is inactive: 113%.
To `CCC(=O)N1CCc2cc(S(=O)(=O)NC(C(=O)NCCc3ccc(OC)c(OC)c3)C(C)C)ccc21` (stereo not drawn) belongs inactive: 131%; to `Cc1cc(C)c(NC(=O)c2nc3ccccc3nc2N2CCCCC2)c(C)c1`, inactive: 73%.
To `CCCCNC(=O)C1CCC(Cn2c(=O)c3sccc3n(Cc3ccccc3)c2=O)CC1` (stereo not drawn) belongs inactive: 78%.
In the case of `O=C(Cn1c(=O)n(CCc2ccccc2)c(=O)c2cccnc21)Nc1ccc(F)cc1`, the survival was inactive: 80%.
With `Cc1cc(C(=O)N2CCN(c3ccccc3)CC2)c2c(C)nn(-c3cccc(F)c3)c2n1` the figure was inactive: 63%; with `COc1cc(NC(=O)C2CCN(C(=O)c3sc4nc[nH]c(=O)c4c3C)CC2)cc(OC)c1OC`, inactive: 112%; with `CCCCNC(=O)CSc1nc2cc3c(cc2c(=O)n1CCCC(=O)NCCc1ccc(OC)c(OC)c1)OCO3`, inactive: 129%.
As for `CC1=C(C(=O)OC2CCCC2)C(c2c(Cl)cccc2Cl)CC(=O)N1` (stereo not drawn), the survival is inactive: 88%.
For `Cc1ccc(N2C(=O)c3n[nH]c(C)c3C2c2ccc(Cl)cc2)cc1` (stereo not drawn), the survival was inactive: 17%.
`Cc1ccc(NC(=O)Cn2nc(C(F)(F)F)c3c2CCCC3)cc1C`: the survival is inactive: 64%.
`O=C(Cc1ccc(F)cc1)N/N=C/c1ccc(-c2ccc(Cl)c(C(=O)O)c2)o1`: the survival is inactive: 112%.
With `CCOC(=O)c1[nH]c2c(c1Cc1ccccc1OC)C(=O)CC(c1ccc(OC)cc1)C2` (stereo not drawn) the figure was inactive: 86%; with `Cc1ccc(CNC(=O)c2nn(-c3ccc(Cl)cc3)nc2CO)cc1`, inactive: 92%.
To `Cc1ccccc1CSc1nnc2[nH]c(=O)cc(-c3ccccc3)n12` belongs inactive: 74%; to `CCc1ccc(-n2c(=O)c3c4c(sc3n(Cc3cc(=O)n5c(C)cccc5n3)c2=O)CCC4)cc1`, inactive: 131%.
With `Cc1cc(C)cc(NC(=O)CSc2oc(-c3ccccc3)nc2S(=O)(=O)c2ccc(Cl)cc2)c1` the figure was inactive: 86%.
In the case of `CCOC(=O)c1ccccc1NC(=O)Cn1ncc2c1-c1ccccc1OC2`, the survival was inactive: 84%.
As to `CCc1ccccc1NS(=O)(=O)c1ccc2nc(-c3ccccc3)[nH]c2c1`, the survival is inactive: 82%.
To `CC(C)OCCCNC(=O)C(=O)Nc1c2c(nn1-c1ccccc1)CS(=O)(=O)C2` belongs active: -6%.
As to `O=C(O)CNC(=O)c1sc2ccccc2c1Cl`, the survival was inactive: 122%.
With `Cc1ccc2c(c1)N(CC(=O)NCCc1ccccc1)C(=O)CO2` the figure was inactive: 77%.
As to `O=C(O)c1ccc(-c2ccc(/C=N/N3C(=O)C4C(C3=O)C3C=CC4C34CC4)o2)cc1` (stereo not drawn), the survival was inactive: 110%.
With `CCCC(=O)Nc1cc2nn(-c3ccccc3)nc2cc1C` the figure was inactive: 82%; with `CCc1ccccc1NC(=O)Nc1c(C)n(C)n(-c2ccccc2)c1=O`, inactive: 72%.
To `Cc1ccc(C)c(Cn2c(=O)n(CCCCC(=O)NCc3ccc4c(c3)OCO4)c(=O)c3ccccc32)c1` belongs inactive: 110%; to `CCOC(=O)c1c(C)[nH]c(C)c1S(=O)(=O)N1CCC(C(=O)Nc2ccc(OCC)cc2)CC1`, active: -3%.
`CCCCn1cc(S(=O)(=O)c2cc(C)ccc2C)c(=O)c2cc(F)c(N3CCC(C)CC3)cc21`: the survival was inactive: 80%.
To `CC(C)OCCCNc1ncnc2sc3c(c12)CCCC3` belongs inactive: 79%; to `COc1ccc(C(=O)NCC(c2ccco2)S(=O)(=O)c2ccc(F)cc2)cc1` (stereo not drawn), inactive: 74%; to `N#Cc1cc2c(cc1C#N)Oc1ccccc1O2`, inactive: 108%.
To `CCc1cccc(NC(=O)CN(c2ccc(C)c(C)c2)S(=O)(=O)c2ccsc2C(=O)OC)c1` belongs active: -6%; to `Cc1ccc(C)c(N2CCN(C(=O)CN3C(=O)COc4ccc(S(=O)(=O)N5CCCC5)cc43)CC2)c1`, inactive: 85%.
Consider `CCCCN(CCCC)CCCNC(=O)Cn1cc2c(n1)-c1c(oc(C(=O)N3CCCC3)c1C)CC2`, for which the survival was inactive: 87%.
Turning to `O=C(NCc1ccco1)C1CC(c2ccccc2O)=NO1` (stereo not drawn), the survival is inactive: 128%.
Turning to `CSc1ncc(C(=O)Nc2ccccc2C(F)(F)F)c(-c2ccccc2)n1`, the survival was inactive: 121%.
On to `CC(C)C(c1nnnn1Cc1ccccc1)N1CCN(c2ccccc2)CC1` (stereo not drawn), for which the survival was inactive: 104%.
With `CCCc1nc2nc(C)c(NS(=O)(=O)c3ccc(CC(C)C)cc3)c(=O)n2[nH]1` the figure was inactive: 83%; with `CCOC(=O)c1ccc(N2C(=O)c3[nH]nc(-c4ccc(C)cc4)c3C2c2cccs2)cc1` (stereo not drawn), inactive: 77%.
With `N#C/C(=C/Nc1cccc2ccccc12)c1nc2ccccc2o1` the figure was inactive: 103%; with `CCCn1c(CCC(=O)Nc2cc(C(=O)OC)cc(C(=O)OC)c2)nc2cccnc21`, inactive: 119%; with `Cc1ccccc1CCNC(=O)c1ccc2c(c1)nc1n2CCOC1`, inactive: 56%.
Regarding `COC(=O)c1scc(-c2ccc(C)cc2)c1S(=O)(=O)Nc1cc(Cl)c(OC)cc1OC`, the survival is inactive: 73%.
As for `CCCCOc1ccc(Cn2c(=O)sc3ccccc32)cc1OC`, the survival was active: -5%.
To `CCCn1c(CCC(=O)Nc2cc(OC)cc(OC)c2)nc2cccnc21` belongs inactive: 79%.
Take `CCC(=O)N1c2ccccc2CC1C(=O)NCCc1cc(OC)c(OC)c(OC)c1` (stereo not drawn): the survival was inactive: 152%.
With `O=C(NCc1ccc2c(c1)OCO2)c1cccc(C(=O)NCc2ccc3c(c2)OCO3)c1`, the survival was inactive: 107%.
Take `Cc1cc(NC(=O)CCn2c(=O)c3cccn3c3cccnc32)ccc1Br`: the survival is inactive: 113%.

The values above are taken from PubChem BioAssay AID463173 (ICCB-Longwood Screening Facility, Harvard Medical School, 2010).
